To fix the notation:
B1: Caulobacter ParB omega fusion; a variant is named by its letters at X, in order, B8GW30 (parent)
chain: MESVVVGEPGMSEGRRGLGRGLSALLGEVDAAPAQAPGEQLGGSREAPIEILQRNPDQPRRTFREEDLEDLSNSIREKGVLQPILVRPSPDTAGEYQIVAGERAWRAAQRAGLKTVPIMVRELDDLAVLEIGIIENVQRADLNVLEEALSYKVLMEKFERTQENIAQTIGKSXSHVANXMRLLXLPDEVQSYLVSGELTAXHARAIAAAADPVALAKQIIEGGLSVRETEALARKAPNLSAGKSKGGRPPRVKDTDTQALESDLSSVLGLDVSIDHRGSTGTLTITYATLEQLDDLCNRLTRGI

The full ranking holds about 81,000 sequences; the median of “one-hybrid fitness for binding parS DNA” is about -0.17, and the highest 2% start at about 0.51. Some of the results follow.

This assay covers variants of B1. The assay is described as follows: one-hybrid fitness for binding parS DNA (scaled: cognate 1, non-cognate 0); higher = stronger binding. The note with it: with parS DNA site. The procedure, abridged:
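On M9-minus-histidine containing 0.1 mM IPTG and 5 mM 3-AT, E. coli USO cells with a HIS3 reporter, site 19 bp from the promoter, grew 48 hours at 37°C to select Caulobacter ParB libraries randomised at four specificity codons. Plasmids from before and after were Illumina-sequenced, with three replicate libraries pooled and variants under 10 reads left out. Fitness is the log change in variant-to-wild-type read ratio, rescaled against cognate and non-cognate.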
For IIGI, the “one-hybrid fitness for binding parS DNA” value is not above 0.2. With ASGN, the “one-hybrid fitness for binding parS DNA” value is not above 0.2. For FLDK, the “one-hybrid fitness for binding parS DNA” value is not above 0.2. The result for GRNS reads not above 0.2; that for RRSK, not above 0.2. The result for GSYP reads not above 0.2.

Consider EPLI, for which the “one-hybrid fitness for binding parS DNA” value is not above 0.2. The figure for WCRK is not above 0.2; for GGET it is not above 0.2. The figure for MISY is not above 0.2; for VIEN it is 0.231; for QQNC it is not above 0.2. The result for SCIS reads not above 0.2; that for QKKG, not above 0.2. Regarding HQWG, the “one-hybrid fitness for binding parS DNA” value was not above 0.2. The figure for VARD is not above 0.2; for GYTR it is not above 0.2.

Regarding KKSY, the “one-hybrid fitness for binding parS DNA” value is not above 0.2. The result for MGKS reads not above 0.2; that for PGDL, not above 0.2. With DSQG, the “one-hybrid fitness for binding parS DNA” value is not above 0.2. With NTQS, the “one-hybrid fitness for binding parS DNA” value is not above 0.2. As to RRNT, the “one-hybrid fitness for binding parS DNA” value is 0.565. As to CLIA, the “one-hybrid fitness for binding parS DNA” value was not above 0.2. For the variant SGKS, the “one-hybrid fitness for binding parS DNA” value was not above 0.2. The result for MGMR reads not above 0.2.

With HPFM, the “one-hybrid fitness for binding parS DNA” value was not above 0.2. As to SNAN, the “one-hybrid fitness for binding parS DNA” value was not above 0.2. Take KFMS: the “one-hybrid fitness for binding parS DNA” value is not above 0.2. The figure for HSYI is not above 0.2; for LKHL it is not above 0.2.

Consider GAAP, for which the “one-hybrid fitness for binding parS DNA” value is not above 0.2. As for ITIT, the “one-hybrid fitness for binding parS DNA” value is not above 0.2.

For WTPE, the “one-hybrid fitness for binding parS DNA” value was not above 0.2. The result for RCHC reads 1; that for YCTS, not above 0.2; that for SQSL, not above 0.2. As to YKTG, the “one-hybrid fitness for binding parS DNA” value was not above 0.2. Turning to YRTL, the “one-hybrid fitness for binding parS DNA” value was not above 0.2. The figure for HHDT is not above 0.2; for FRMG it is not above 0.2; for PFPC it is not above 0.2. On to AVLF, for which the “one-hybrid fitness for binding parS DNA” value is not above 0.2. The figure for AMGP is not above 0.2.

Consider YDNT, for which the “one-hybrid fitness for binding parS DNA” value was not above 0.2.

Consider LHPV, for which the “one-hybrid fitness for binding parS DNA” value is not above 0.2. The figure for KNQM is not above 0.2. In the case of WYAG, the “one-hybrid fitness for binding parS DNA” value was not above 0.2.

On to QMTA, for which the “one-hybrid fitness for binding parS DNA” value was not above 0.2. The result for PRDK reads not above 0.2; that for QYQK, not above 0.2; that for TMRD, not above 0.2. The result for RMND reads not above 0.2. The result for DYRL reads not above 0.2. For WRIF, the “one-hybrid fitness for binding parS DNA” value was not above 0.2.

Take PTLE: the “one-hybrid fitness for binding parS DNA” value was not above 0.2. Regarding DQSS, the “one-hybrid fitness for binding parS DNA” value is not above 0.2. The result for VIMT reads not above 0.2; that for RVAD, not above 0.2; that for NLPL, not above 0.2. The result for VRGV reads not above 0.2. The result for STVL reads not above 0.2; that for ELAH, not above 0.2; that for HCSL, not above 0.2. Regarding ISYK, the “one-hybrid fitness for binding parS DNA” value was not above 0.2.

As for VLPY, the “one-hybrid fitness for binding parS DNA” value is not above 0.2. The figure for RWQL is not above 0.2; for AQGS it is not above 0.2; for VRSM it is not above 0.2. The result for NWLG reads not above 0.2. The result for MFTE reads not above 0.2; that for CCVS, not above 0.2; that for WRGW, not above 0.2. For the variant QCNM, the “one-hybrid fitness for binding parS DNA” value was not above 0.2. On to VNPA, for which the “one-hybrid fitness for binding parS DNA” value is not above 0.2. The result for NCLY reads not above 0.2. On to PTYW, for which the “one-hybrid fitness for binding parS DNA” value was not above 0.2.

In the case of ICPL, the “one-hybrid fitness for binding parS DNA” value was not above 0.2.

On to RQAQ, for which the “one-hybrid fitness for binding parS DNA” value was not above 0.2. Take GCFT: the “one-hybrid fitness for binding parS DNA” value was not above 0.2. As to PQYI, the “one-hybrid fitness for binding parS DNA” value is not above 0.2. Regarding IMVS, the “one-hybrid fitness for binding parS DNA” value is not above 0.2.

For RLVD, the “one-hybrid fitness for binding parS DNA” value was not above 0.2. For the variant FAWT, the “one-hybrid fitness for binding parS DNA” value is not above 0.2. Take NNHG: the “one-hybrid fitness for binding parS DNA” value is not above 0.2.

As to NGLK, the “one-hybrid fitness for binding parS DNA” value is not above 0.2.

As for VYMM, the “one-hybrid fitness for binding parS DNA” value was not above 0.2.

Regarding AFCT, the “one-hybrid fitness for binding parS DNA” value is not above 0.2.

Turning to LERC, the “one-hybrid fitness for binding parS DNA” value is not above 0.2. QELY: the “one-hybrid fitness for binding parS DNA” value was not above 0.2. The figure for LQTV is not above 0.2; for LSMI it is not above 0.2; for RQFW it is not above 0.2. On to SPWL, for which the “one-hybrid fitness for binding parS DNA” value is not above 0.2. YRAD: the “one-hybrid fitness for binding parS DNA” value was not above 0.2. As for YPAL, the “one-hybrid fitness for binding parS DNA” value was not above 0.2. For the variant IPHT, the “one-hybrid fitness for binding parS DNA” value was not above 0.2.

For the origin of these results see a collection of fitness landscapes (doi:10.1016/j.celrep.2020.107928).
